Experimental data reported in PubChem BioAssay AID1460 (National Center for Advancing Translational Sciences (NCATS), 2008).
Several values for one entry are separate records, joined by “and”; a condition that tells them apart may be missing. Identical values can stand only once. Among all 270,000 compounds or so, about 5,800 (2.1%) were called active. The shares of active, inactive and inconclusive entries below differ from those in the screen. The call rests on the fitted dose curve; in most records, active means well fitted inhibition curve with a large enough effect; inconclusive means small, poorly fitted or top-dose-only effect; inactive means flat fitted curve, though single readings scatter. Where the call is inconclusive, the potency comes from a doubtful curve fit.

Biological target: Microtubule-associated protein tau (Homo sapiens) (UniProt P10636)
Experiment: qHTS for Inhibitors of Tau Fibril Formation, Thioflavin T Binding; further: nearly all actives have a fitted effect of over 55% in size
Settings: recombinant tau K18 P301L, heparin-induced fibrillization, ThT fluorescence; series mostly up to 57.4 µM
Procedure, shortened: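 Fibril formation assay: tau K18 P301L at 15 uM with trace Alexa 594 label, heparin inducer 20 uM, pH 7 sodium acetate buffer, 37 C for 6 hr; endpoint ThT signal.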
On the % scale 0 is the no-effect control and ±100 the full control effect; potency means the concentration at half of the fitted maximal effect; tags describe the fitted curve by direction and shape.

Chain of UniProt P10636 (P10636 whole entry, looked up): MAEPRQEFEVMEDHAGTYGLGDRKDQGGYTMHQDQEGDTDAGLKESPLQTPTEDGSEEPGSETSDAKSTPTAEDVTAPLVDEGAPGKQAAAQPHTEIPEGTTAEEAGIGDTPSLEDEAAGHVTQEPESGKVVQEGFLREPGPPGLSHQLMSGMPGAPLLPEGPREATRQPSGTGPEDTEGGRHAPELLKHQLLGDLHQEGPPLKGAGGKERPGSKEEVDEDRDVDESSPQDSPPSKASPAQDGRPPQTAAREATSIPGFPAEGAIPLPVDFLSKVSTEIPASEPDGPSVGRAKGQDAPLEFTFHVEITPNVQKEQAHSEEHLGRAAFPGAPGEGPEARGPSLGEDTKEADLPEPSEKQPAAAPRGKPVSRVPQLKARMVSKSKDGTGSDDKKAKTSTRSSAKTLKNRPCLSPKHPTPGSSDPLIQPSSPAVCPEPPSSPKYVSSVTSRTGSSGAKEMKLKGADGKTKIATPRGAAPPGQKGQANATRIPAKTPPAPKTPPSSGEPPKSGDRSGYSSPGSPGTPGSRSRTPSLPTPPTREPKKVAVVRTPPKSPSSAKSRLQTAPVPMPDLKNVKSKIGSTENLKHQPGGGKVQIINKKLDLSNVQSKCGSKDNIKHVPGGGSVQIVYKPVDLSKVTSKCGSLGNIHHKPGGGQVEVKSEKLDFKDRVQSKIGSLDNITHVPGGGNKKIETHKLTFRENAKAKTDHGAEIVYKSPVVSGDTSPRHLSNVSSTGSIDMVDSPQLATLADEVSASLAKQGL

SMILES	Potency	activity, negative = inhibition
Cc1sc2nc(SCc3ccc(C(=O)O)cc3)n(Cc3ccco3)c(=O)c2c1C	inconclusive: 31.6 µM [inhibitor, single point]	
CCOC(=O)N1CCN(C(=S)NC(=O)c2cncc(Br)c2)CC1	inactive	
CCN(CC)C(=S)Nc1ccc(OC(F)F)cc1	inactive	
CCc1ccc(/C=N/NC(=O)c2c[nH]c3ccccc23)s1	inconclusive: 11.2 µM [inhibitor, partial curve]	
O=C(Cc1ccc(Cl)cc1)Nc1ccc(NC(=O)c2ccccc2)cc1	inactive	
CCCCc1ccc(-c2csc(/C(C#N)=C\c3ccc(C)o3)n2)cc1	inconclusive: 10 µM [inhibitor, partial curve]	
CCOC(=O)CC(=O)CSc1ncnc2c1nnn2-c1ccc(OC)cc1	inconclusive: 11.2 µM [inhibitor, partial curve]	
CCOc1ccc(NC(=S)c2ccncc2)cc1	inconclusive: 15.8 µM [inhibitor, partial curve]	
O=C(/C=C/c1ccco1)N1CCc2ccccc21	inconclusive: 15.8 µM [inhibitor, partial curve]	
CCOC(=O)OCC1OC(C#CC(C)(C)C)C=CC1OC(=O)OCC (configuration not stated)		inactive: -11.4% [at 11.5 µM]
N#C/C(=C\c1ccc(O)c(O)c1)C(=O)NCCCc1ccccc1	inconclusive: 25.1 µM [inhibitor, partial curve] and inconclusive: 15.8 µM [inhibitor, partial curve] and inconclusive: 1 µM [inhibitor, full curve]	
Cc1ccc2oc3c(c(=O)c2c1)C(c1ccccc1F)N(c1ccccn1)C3=O (configuration not stated)	inactive	
CN(Cc1ccon1)Cc1cn(C)nc1-c1ccc2c(c1)OCCO2	inconclusive: 39.8 µM [inhibitor, single point]	
CCOC(=O)c1cnn2c(N)c(C#N)cnc12	inactive	
O=S(=O)(c1ccccc1)N1CCC(O)(CSc2ccc(Cl)cc2)CC1	inactive	
O=C(CSc1nc2cc(Cl)ccc2o1)c1cccs1	inconclusive: 10 µM [inhibitor, partial curve, poor fit]	
Cc1ccc(NC(=O)c2ccccc2)cc1	inconclusive: 35.5 µM [inhibitor, partial curve]	
COc1ccc(N2C(=O)/C(=C/c3ccc([N+](=O)[O-])cc3)N=C2C)cc1	inconclusive: 15.8 µM [inhibitor, partial curve, poor fit]	
O=C1N[C@H](Cc2ccccc2)C(=O)N1Cc1cccc2ccccc12	inactive	
Cc1cc(F)ccc1S(=O)(=O)N1CCCOC1CNC(=O)C(=O)NCCc1c[nH]c2ccccc12 (configuration not stated)	inconclusive: 31.6 µM [inhibitor, single point]	
Cc1cc(=O)n(CCCO)c(O)c1C#N	inconclusive: 15.8 µM [inhibitor, partial curve]	
Cc1cc(/C=C2\C(=O)NN(c3ccccc3)C2=O)c(C)n1-c1ccccc1O	inconclusive: 4.47 µM [inhibitor, partial curve]	
CS/C(=C\[N+](=O)[O-])Nc1ccc(OC(F)(F)F)cc1	inconclusive: 28.2 µM [inhibitor, single point]	

SMILES	Potency	activity, negative = inhibition
O=C(c1ccc(-c2nc3ccccc3s2)s1)N1CCOCC1	inconclusive: 7.08 µM [inhibitor, full curve]	
COc1ccc(C(=O)Nc2ccc(NC(=O)c3cccs3)cc2)cc1OC	inconclusive: 1.12 µM [inhibitor, full curve]	
COc1ccc(/C=N/Nc2nncc3ccccc23)cc1	inconclusive: 3.16 µM [inhibitor, partial curve]	
O=C(Cn1nc(CNc2ccc(Br)cc2)[n+]2c1CCCCC2)c1ccc([N+](=O)[O-])cc1	inconclusive: 15.8 µM [inhibitor, partial curve]	
Cc1nn(C)c(C)c1CN(C)S(=O)(=O)c1ccc2ccccc2c1	inactive	
Cc1ccc(NC(=O)N2CC3CCCN3c3ccccc32)cc1C (configuration not stated)	inconclusive: 3.98 µM [inhibitor, partial curve]	
NS(=O)(=O)c1ccc(NC(=O)C(Sc2ccccc2)c2ccccc2)cc1 (configuration not stated)	inactive	
CN(C)c1ccc(CN(Cc2ccco2)C(=O)COc2ccc(F)cc2)cc1	inconclusive: 22.4 µM [inhibitor, partial curve]	
O=C(Nc1nc(-c2ccccn2)cs1)c1ccccc1-n1cnnn1	inconclusive: 15.8 µM [inhibitor, partial curve]	
COc1ccc(C(C)=O)cc1CN1C(=O)NC2(CCCCCCC2)C1=O	inactive	
COC(=O)[C@@]1(Cc2ccc(F)cc2)[C@H]2c3cc(C(=O)N4CCCC4)n(CCc4c[nH]c5ccc(OC)cc45)c3C[C@H]2CN1C(=O)c1ccccc1	inactive and inconclusive: 15.8 µM [inhibitor, partial curve, poor fit]	
CCOc1ccc(NCC(=O)Nc2ccc(Cl)cc2C)cc1	inconclusive: 28.2 µM [inhibitor, single point]	
COc1ccc2nc(N3CCCCC3)c(/C=C3\SC(=S)NC3=O)cc2c1	active: 14.1 µM	
Cc1ccc(C2C(C(=O)c3sc(C)nc3C)=C(O)C(=O)N2CCN2CCOCC2)o1 (configuration not stated)	inconclusive: 22.4 µM [inhibitor, partial curve, poor fit]	
COc1ccc(-c2cc(C(=O)NC(Cc3cc4ccccc4[nH]3)C(=O)O)c(C)o2)cc1OC (configuration not stated)	inconclusive: 17.8 µM [inhibitor, partial curve]	
N#CCC(=O)N/N=C/c1ccc(OCC(=O)Nc2ccc(F)cc2)cc1	inconclusive: 3.55 µM [inhibitor, full curve]	
c1ccc(-c2cnc(CSc3nnc4ccccn34)o2)cc1	inactive	
Cc1oc(-c2ccc(C(=O)NCCC(C)C)cc2)nc1CS(=O)(=O)c1ccccc1	inactive	
CCS(=O)(=O)N1CC(=O)N(c2cccc(Cl)c2)C(C)(C(=O)NC2CCCCCC2)C1 (configuration not stated)	inactive	
O=c1cc(-c2ccc(O)c(O)c2)oc2ccccc12	active: 17.8 µM	
Nc1ncc(-c2cc3ccccc3oc2=O)s1	inconclusive: 8.91 µM [inhibitor, partial curve]	
O=C(NCc1cccnc1)C1CCN(S(=O)(=O)c2cccnc2)CC1	inactive	
O=C(O)c1cc(N(Cc2ccccc2O)Cc2cc(O)ccc2O)ccc1O	active: 17.8 µM	

SMILES	Potency	activity, negative = inhibition
CCOc1ccc(C(=O)COc2ccc(NC(C)=O)cc2)cc1	inconclusive: 17.8 µM [inhibitor, partial curve]	
CC1(C)CC2C1CC[C@]1(C)CCC3C(C(=O)O)CC(=O)O[C@]32C1 (some centres not stated)	inconclusive: 12.6 µM [inhibitor, partial curve]	
CC1CCN(S(=O)(=O)c2ccc3c(c2)CCN3C(=O)Nc2cccc(Br)c2)CC1	inconclusive: 11.2 µM [activator, partial curve]	
COc1cc(/C=N/Nc2nc(-c3ccc(S(=O)(=O)N(C)C)cc3)cs2)ccc1O	active: 10 µM	
COc1ccccc1OCC(=O)OC/C(O)=C(\C#N)c1nc2ccccc2[nH]1	inactive	
CN(C)c1ccc(S(=O)(=O)NCC(=O)OCC(=O)Nc2cccc(Cl)c2)cc1[N+](=O)[O-]	inconclusive: 14.1 µM [inhibitor, single point]	
COc1ccc(CCNC(=S)Nc2cccc3ccccc23)cc1	inactive	
CCOC(=O)Cc1cc(C(=O)Nc2ccc(Br)cc2)sc1-c1ccc(C)cc1	inconclusive: 20 µM [activator, single point]	
CC1=NN(c2ccccc2)C(=O)C1C(=O)c1ccc([N+](=O)[O-])cc1 (configuration not stated)	inconclusive: 17.8 µM [inhibitor, partial curve]	
COc1cc(OC)c(/C=N/NC(=O)COc2cccc3cccnc23)c(OC)c1	inconclusive: 5.01 µM [inhibitor, partial curve]	
CC1(C)OC(=CC=Nc2ccc(Cl)cc2)OC1(C)C	inconclusive: 5.62 µM [inhibitor, full curve, poor fit]	
Cc1ccc(NC(=S)NNC(=O)c2cccc([N+](=O)[O-])c2)cc1Cl	inconclusive: 11.2 µM [inhibitor, partial curve]	
CC(=O)c1c(C)[nH]c(C(=O)COC(=O)CNS(=O)(=O)c2ccccc2)c1C	inconclusive: 20 µM [inhibitor, single point]	
S=C(NCCc1ccccc1)Nc1ccc(Nc2ccccc2)cc1	inconclusive: 20 µM [inhibitor, partial curve]	
Cc1ccc[n+](-c2[nH]c(=O)sc2/C=N/N=C(\[O-])CCn2c3ccccc3c3ccccc32)c1	inconclusive: 28.2 µM [inhibitor, partial curve, poor fit]	
Cc1ccn2c(NC(=O)c3cccc(Cl)c3)c(-c3ccccc3)nc2c1	inconclusive: 44.7 µM [inhibitor, single point]	
CCCn1c(=O)c2ccccc2n2c(SCc3nc4ccccc4s3)nnc12	inconclusive: 31.6 µM [inhibitor, single point]	
CN(C)c1ccc(NC(=O)CSc2nnc(-c3cccs3)n2Cc2ccco2)cc1	inconclusive: 17.8 µM [inhibitor, partial curve]	
Cc1ccc(NC(=O)CN2C(=O)c3cccnc3Sc3ccccc32)cc1C	inactive	
COc1ccc2c(c1OC)C(=O)N1C(C(=O)O)Cc3c([nH]c4ccccc34)C21 (configuration not stated)	inconclusive: 14.1 µM [inhibitor, partial curve]	
C/C(C/C(C)=C1/SC(=S)NC1=O)=C1\SC(=S)NC1=O	active: 15.8 µM	
